# Test results: the supplement of paper PMC10037445
# In all, about 2,900 compounds were measured (“IRF Lucia reporter activity, fold change vs agonist alone”: median about 0.9, highest 2% from about 2.8 on). The list shows a part of the results.
# What was measured:
# [1] = system: RAW-Dual; experiment: IRF Lucia reporter activity, fold change vs agonist alone; cytotoxicity flag (confluency mask): not cytotoxic; higher = enhanced IRF activity
# Method in brief: (§1)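 RAW-Dual macrophages were seeded in DMEM at 50,000 cells/well in 384-well plates, given 50 nL of library stock by pin tool, and given a PRR agonist 1 h later. Plates were held at 37 °C, 5% CO2 for 20 hours, after which supernatant was read for IRF by QuantiLuc luminescence and for NF-κB by QuantiBlue absorbance at 620 nm. Reporter activity is expressed as fold change over wells that received agonist alone. A well was called cytotoxic when IncuCyte confluency fell below 70% of agonist controls in both mask sets.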
# [2] = system: RAW-Dual; experiment: IRF Lucia reporter activity, fold change vs agonist alone; higher = enhanced IRF activity; settings: library stock concentration (final ~1000-fold dilution): 10 mM, agonist: MPLA (TLR4) […]
# Method in brief: as §1
# [3] = system: RAW-Dual; experiment: IRF Lucia reporter activity, fold change vs agonist alone; cytotoxicity flag (confluency mask): cytotoxic (confluency <70% of control); higher = enhanced IRF activity
# Method in brief: as §1
# [4] = agonist: 3'3'-cGAMP (STING) 10 ug/mL
# [5] = cytotoxicity flag (confluency mask): not cytotoxic
# [6] = cytotoxicity flag (confluency mask): cytotoxic (confluency <70% of control)
structure (smiles),measurement,setting,value
CC1=C(C(=O)Nc2ccc3[nH]ncc3c2)C(c2ccc(F)cc2)NC(=O)N1 (stereo not given) (library stock concentration (final ~1000-fold dilution): 10 mM),IRF Lucia reporter activity,[1]; [4],0.535
same,IRF Lucia reporter activity,[1]; agonist: LPS (TLR4) 0.1 ug/mL,0.76
COc1cc2c(c(OC)c1OC)-c1c(cc3c(c1OC)OCO3)CC(C)C(C)C2 (stereo not given),IRF Lucia reporter activity,[2]; [5],1.12
CCOC(=O)c1cnc2ccc(-c3cncc(NS(=O)(=O)c4ccccc4)c3)cn12,IRF Lucia reporter activity,[2]; [6],4.46
CCOC(=O)c1cnc2ccc(-c3cncc(NS(=O)(=O)c4ccccc4)c3)cn12 (library stock concentration (final ~1000-fold dilution): 10 mM),IRF Lucia reporter activity,[3]; [4],0.284
same,IRF Lucia reporter activity,[3]; agonist: LPS (TLR4) 0.1 ug/mL,4.78
COc1cc(C(=O)N2CCC(N3CCN(C)CC3)CC2)ccc1Nc1ncc2c(n1)N(C)c1ccccc1C(=O)N2C,IRF Lucia reporter activity,[2]; [5],0.18
COc1cc(C(=O)N2CCC(N3CCN(C)CC3)CC2)ccc1Nc1ncc2c(n1)N(C)c1ccccc1C(=O)N2C (library stock concentration (final ~1000-fold dilution): 10 mM),IRF Lucia reporter activity,[1]; [4],0.129
same,IRF Lucia reporter activity,[1]; agonist: LPS (TLR4) 0.1 ug/mL,0.203
C#CCC(c1nc2cc(Cl)ccc2c(=O)n1Nc1ccccc1)N(CCCN)C(=O)c1cccc(Cl)c1F (stereo not given) (library stock concentration (final ~1000-fold dilution): 10 mM),IRF Lucia reporter activity,[3]; [4],0.0307
same,IRF Lucia reporter activity,[3]; agonist: LPS (TLR4) 0.1 ug/mL,0.051
C#CCC(c1nc2cc(Cl)ccc2c(=O)n1Nc1ccccc1)N(CCCN)C(=O)c1cccc(Cl)c1F (stereo not given),IRF Lucia reporter activity,[2]; [6],0.0275
COc1ccc(-c2cc(=O)c3c(O)c(OC)c(O)c(OC)c3o2)cc1,IRF Lucia reporter activity,[2]; [5],0.91
COc1ccc(-c2cc(=O)c3c(O)c(OC)c(O)c(OC)c3o2)cc1 (library stock concentration (final ~1000-fold dilution): 10 mM),IRF Lucia reporter activity,[1]; [4],0.681
same,IRF Lucia reporter activity,[1]; agonist: LPS (TLR4) 0.1 ug/mL,0.696
C=C1C(=O)OC2C1CCC(=C)C1CCC(=C)C12 (stereo not given),IRF Lucia reporter activity,[2]; [6],0.952
same,IRF Lucia reporter activity,[2]; [5],0.0283
C=C1C(=O)OC2C1CCC(=C)C1CCC(=C)C12 (stereo not given) (library stock concentration (final ~1000-fold dilution): 10 mM),IRF Lucia reporter activity,[1]; [4],0.0138
same,IRF Lucia reporter activity,[1]; agonist: LPS (TLR4) 0.1 ug/mL,0.0233
same,IRF Lucia reporter activity,[3]; [4],0.0204
same,IRF Lucia reporter activity,[3]; agonist: LPS (TLR4) 0.1 ug/mL,0.0187
O=c1cc(CO)occ1O (library stock concentration (final ~1000-fold dilution): 10 mM),IRF Lucia reporter activity,[1]; [4],1.02
same,IRF Lucia reporter activity,[1]; agonist: LPS (TLR4) 0.1 ug/mL,1.27
O=c1cc(CO)occ1O,IRF Lucia reporter activity,[2]; [5],1.11
Cc1cccc(-c2[nH]c(C(C)(C)C)nc2-c2ccc3c(c2)OCO3)n1 (library stock concentration (final ~1000-fold dilution): 10 mM),IRF Lucia reporter activity,[1]; [4],0.925
same,IRF Lucia reporter activity,[1]; agonist: LPS (TLR4) 0.1 ug/mL,0.859
Cc1cccc(-c2[nH]c(C(C)(C)C)nc2-c2ccc3c(c2)OCO3)n1,IRF Lucia reporter activity,[2]; [5],0.938
CCn1c(C(=O)N(C2CC2)C2CC2)cc2c3c(ncn3C)c(Nc3cc(C)n(C)n3)nc21 (library stock concentration (final ~1000-fold dilution): 10 mM),IRF Lucia reporter activity,[1]; [4],0.419
same,IRF Lucia reporter activity,[1]; agonist: LPS (TLR4) 0.1 ug/mL,0.772
CCn1c(C(=O)N(C2CC2)C2CC2)cc2c3c(ncn3C)c(Nc3cc(C)n(C)n3)nc21,IRF Lucia reporter activity,[2]; [5],0.732
